Measurements from PubChem BioAssay AID1346428 (National Center for Advancing Translational Sciences (NCATS), 2018).
The whole screen tested about 48,000 compounds, of which about 1,200 (2.5%) were called active. About 2% were inconclusive and are not listed.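 How the source made its calls: active means activation of at least 60% and not above a set upper limit (about 1 call in 100 departs from these limits); inconclusive means activation of 40% to 60%, or above that upper limit; inactive means activation under 40%.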 This is one part of the list.

Molecular target: Probable G-protein coupled receptor 32 (Homo sapiens) (UniProt O75388)
Test: qHTS for Agonists of Human Resolvin D1 Receptor DRV1; further: 0% is about no effect
Details: CHO-K1 GPR32 beta-arrestin PathHunter luminescence, 90 min; at 76.9 µM; hits give high values; zero percent set by DMSO-only wells
Procedure, shortened: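 Cells are plated overnight, treated with compounds in DMSO for 90 minutes at 37 °C, and developed with PathHunter detection reagent for 1 hour before luminescence is read; signal reflects beta-arrestin binding to GPR32 in engineered CHO-K1 cells.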

Chain of UniProt O75388 (O75388 whole entry, looked up): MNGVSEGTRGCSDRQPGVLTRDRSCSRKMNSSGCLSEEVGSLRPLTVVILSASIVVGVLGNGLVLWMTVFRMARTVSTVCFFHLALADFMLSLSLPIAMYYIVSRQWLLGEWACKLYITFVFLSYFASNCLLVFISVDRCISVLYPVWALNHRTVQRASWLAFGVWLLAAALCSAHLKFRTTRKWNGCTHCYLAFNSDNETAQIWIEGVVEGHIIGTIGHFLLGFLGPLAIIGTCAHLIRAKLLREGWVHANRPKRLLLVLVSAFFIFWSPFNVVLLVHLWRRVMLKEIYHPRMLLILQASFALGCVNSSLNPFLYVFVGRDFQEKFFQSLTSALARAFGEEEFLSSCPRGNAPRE

activation, inactive:
Cc1ccc(C(=O)NCC(c2cccnc2)N2CCc3ccccc3C2)cc1C (configuration not stated) -11.7%
CCOc1ccc(NC(=O)CCn2nc(C)c(S(=O)(=O)N3CCCCC3)c2C)cc1 -9.92%
Cc1nnc(NCc2ccc(F)cc2)c2c1nnn2Cc1ccccc1Cl 3.8%
CCc1ccc(N2C(=O)N(CC(=O)C(C)(C)C)c3ccccc3S2(=O)=O)cc1 -2.76%
O=C(NCCC1=CCCCC1)c1ccc2c(c1)N(Cc1ccc(Cl)cc1)C(=O)c1ccccc1S2(=O)=O 5.86%
COc1ccc(OC)c(NC(=O)CSC2=Nc3ccccc3C3=NC(CCC(=O)NCCc4ccccc4)C(=O)N23)c1 (configuration not stated) -8.89%
COc1ccccc1N1CCN(S(=O)(=O)c2c(C)sc3ncn(CC(=O)NCCN(C)C)c(=O)c23)CC1 6.03%
COc1ccc(NC(=O)CC2C(=O)N(c3ccc(C)cc3)C(=O)N2Cc2ccc(C)cc2)cc1 (configuration not stated) 24.7%
COc1ccc(CCNC(=O)Cn2nc(C)c3c(C)n(-c4ccc(C)cc4)nc3c2=O)c(OC)c1 -2.86%
Cc1c(Cl)cccc1NC(=O)Cn1cnc(S(=O)(=O)N2CCCC2)c1 -1.75%
CCN(CC)CCCNC(=O)c1nn(-c2ccc(OC)cc2)c(=O)c2c1c1ccccc1n2C -22.9%
O=c1c2ccccc2nc(N2CCN(c3cccc(Cl)c3)CC2)n1-c1ccccc1 -19.9%
Nc1ccc(S(=O)(=O)NC2(C(F)(F)F)NC(=O)N(c3cccc(Cl)c3)C2=O)cc1 (configuration not stated) 5.26%
CCC(C(=O)N1CCN(c2ccc(OC)cc2)CC1)n1nc(C)n2c(cc3occc32)c1=O (configuration not stated) 18.4%
COc1ccc(Nc2c3c(nc4nncn24)CCC3)cc1Cl -3.54%
CCOC(=O)c1noc2ncnc(Nc3cccc(C(F)(F)F)c3)c12 -25.2%
COC(=O)c1cccc(CN2C(=O)SC(Nc3ccc(Cl)cc3)C2=O)c1 (configuration not stated) -70.9%
COCCNC(=O)c1ccc2c(c1)N(Cc1c(F)cccc1Cl)C(=O)c1ccccc1S2 -29.3%
CCOC(=O)c1c(C)oc2nc(C)nc(NCc3ccc(OC)cc3)c12 -2.97%
CCCc1cc(=O)[nH]c(Nc2ccc(C)c(O)c2)n1 -8.24%
CCCCOc1ccc(C(=O)Nc2nc3c(s2)CC(C)CC3)cc1 (configuration not stated) 3.75%
CC(=O)Nc1ccc(NC(=O)CCc2c(C)nc3c(c(C)nn3-c3ccccc3)c2C)cc1 -2.62%
O=C(Nc1ccccc1C(F)(F)F)N1CCC2(CC1)Oc1ccccc1C(=O)N2Cc1ccccc1F -24.4%
O=C(NCCc1ccccc1)C1COc2ccccc2C1 (configuration not stated) -17.6%
CCOC(=O)N1CCc2c(sc3c2c(=O)n(-c2ccc(F)cc2)c(=O)n3CC(=O)c2ccccc2)C1 -14.6%
Cc1cccc(CN2C(=O)c3ccccc3Sc3ccc(C(=O)NCc4cccs4)cc32)c1 -17.2%
CCc1ccc(NC(=O)c2cc(C)nn2-c2ccccc2)cc1 -23.1%
CCOC(=O)c1c(C)n(-c2ccccc2)c2ccc(OC(=O)c3cc(OC)cc(OC)c3)cc12 -7.23%
Cc1cc(=O)n(CC(=O)NC(C)c2ccccc2)c2c1c(C)nn2C (configuration not stated) 25.9%
CCOC(=O)c1c(NC(=O)c2cc3ccccc3c(=O)o2)sc2c1CCC(C(C)(C)C)C2 (configuration not stated) -10.6%
Cc1ccc(Nc2nc(C)c(NC(=O)c3ccc(C)cc3)c(Nc3ccc(C)cc3)n2)cc1 -19.5%
CCOc1ccc(C(=O)Nc2ccc3oc(-c4ccncc4)nc3c2)cc1 -12.3%
CCS(=O)(=O)N1CCc2cc(C(=O)Nc3cc(OC)c(Cl)cc3OC)ccc21 -8.5%
CCc1cccc(C)c1NC(=O)C(CC)Sc1nncn2c1cc1occc12 (configuration not stated) -23.7%
CCC(=O)Nc1cc(-c2nc3ccccc3s2)c(Cl)cc1Cl -7.73%
CCOc1ccc(NC(=O)CCNS(=O)(=O)c2cccc3nsnc23)cc1 3.01%
Cn1c(=O)n(C)c2cc(NS(=O)(=O)c3ccc(C(C)(C)C)cc3)c(NCc3ccccc3)cc21 -20.1%
Cc1cccc(C(=O)Nc2nnc(S(=O)(=O)N3CCCc4ccccc43)s2)c1 48.3%
Cc1ccc(NC(=O)Cn2cc(C(=O)C3CCCCC3)c3ccccc32)c(C)c1 -0.635%
CCCNc1nc2c(c(=O)n(C)c(=O)n2C)n1CC(O)COc1ccccc1 (configuration not stated) 8.13%
COc1ccc(NC(=O)c2oc3ccccc3c2NC(=O)COc2ccc(F)cc2)c(OC)c1 -3.72%
O=C(NCc1ccc(F)cc1)C(=O)NCC(c1ccco1)S(=O)(=O)c1cccs1 (configuration not stated) -10.9%
O=C(c1ccc2c(c1)N(Cc1ccc(Cl)cc1)C(=O)c1ccccc1S2(=O)=O)N1CCc2ccccc21 -1.61%
CCC(C(=O)Nc1cccc(C#N)c1)n1nc(-c2ccccc2)ccc1=O (configuration not stated) -9.46%
COC(=O)c1ccccc1NC(=O)CSc1nnc2cc(C)c3cc(C)cc(C)c3n12 -19.9%
Cc1ccc(NC(=O)CCCn2nc(C)c3sc4ccccc4c3c2=O)c(Cl)c1 -8.04%
Cc1ccc(-c2nnc(Nc3cccc(Br)c3)c3ccccc23)cc1S(=O)(=O)NCC1CCCO1 (configuration not stated) -10.3%
CCN1c2ccccc2-c2nc(SCC(=O)Nc3cc(F)ccc3F)ncc2S1(=O)=O -0.803%
O=C(Cn1ccc2cc(S(=O)(=O)N3CCCC3)ccc21)NCc1ccccc1Cl 4.83%
N=S(=O)(O)Cc1noc2ccccc12 -4.28%
CCOc1ccc(C2C(=O)N(C3CCCCCC3)CC(=O)N2CCc2ccc(Cl)cc2)cc1OC (configuration not stated) -35.1%
Cc1cc(C)c(NC(=O)Nc2csc3c2CCCC3)c(C)c1 -13.7%
COc1ccc(CCn2c(=O)c3cccnc3n(CC(=O)Nc3c(C)cc(C)cc3C)c2=O)cc1OC 0.862%
CCCc1cc(N2CCN(c3ccc(OC)cc3)CC2)n2cnnc2n1 17.8%
COc1cc(NC(=O)CCNC(=O)Cn2cnc3ccccc3c2=O)cc(OC)c1OC -9.67%
O=C(CCCCCn1c(=O)[nH]c2ccccc2c1=O)NCc1ccc(Cl)cc1 -0.505%
CCC(=O)N1CCc2cc(Br)cc(S(=O)(=O)NCc3ccccc3)c21 1.65%
CSc1ccc(CCNC(=O)C2CCN(c3ncnc4c3nc3n4CCCCC3)CC2)cc1 -9.63%
O=C(O)c1cc(=O)c2c(OCC(O)COc3cccc4oc(C(=O)O)cc(=O)c34)cccc2o1 -39.2%
Fc1ccc(-n2ncc3c(N4CCN(c5ccccc5F)CC4)ncnc32)cc1 12.1%
CCN(CC)C(=O)COc1ccc(-c2nnc(Nc3ccc(OC)c(C(=O)NC)c3)c3ccccc23)cc1 15.9%
Cc1sc2ncn(CC(=O)N(C)c3cccc(C(F)(F)F)c3)c(=O)c2c1S(=O)(=O)N1CCN(c2ncccn2)CC1 -11.9%
Cc1cc(=O)oc2c3c(ccc12)OCN(Cc1ccc(Cl)cc1)C3 10.5%
CCn1nc(C)c2c(-c3ccccc3)cc(=O)n(C(C)C(=O)NCCc3ccccc3)c21 (configuration not stated) -17.1%
CCc1nn2c(=O)cc(COC(=O)c3ccccc3NC(=O)c3cccs3)nc2s1 -15.7%
O=C(CCn1ccc2cc(S(=O)(=O)N3CCCC3)ccc21)NCc1ccccc1Cl -5.16%
O=C(NCCc1ccc(Cl)cc1)c1ccc2c(c1)N(Cc1cccc(Cl)c1)C(=O)c1ccccc1S2(=O)=O -20.9%
Fc1ccccc1Nc1ncnc2c1nc1n2CCCCC1 13.7%
Cc1cccc(CCNC(=O)c2c[nH]c3ccc(S(=O)(=O)Nc4ccccc4F)cc3c2=O)c1 10.9%
CCC1CCCCN1C(=O)Cn1c(=O)n(CCCCCC(=O)NCc2ccccc2Cl)c(=O)c2sccc21 (configuration not stated) -13.1%
COc1cccc(-c2nnc3sc(CN4CCCCC4)cn23)c1 3.96%
COC(=O)c1ccc(NC(=O)CC2C(=O)N(c3cccc(C)c3)C(=O)N2C2CCCC2)cc1 (configuration not stated) -24.4%
CC(C)(Oc1ccc(Cl)cc1)C(=O)Nc1nnc2n1CCS2 -58.6%
Cc1cnc2c(c1SCC(=O)NCc1ccccc1Cl)c(=O)n(C)c(=O)n2C -2.5%
COc1cccc(C(=O)Nc2cccc(OCc3cc(=O)n4cccc(C)c4n3)c2)c1 -14.3%
Cc1ccc(NC(=O)CCC(=O)N2CCSc3ccccc32)cc1 -16%
CCCCNC(=O)CC1N=C2c3ccccc3N=C(SCC(=O)NCc3ccccc3Cl)N2C1=O (configuration not stated) -11.5%
Cc1ccc(C)c(N2CCN(C(=O)c3nn(C)c4c3CS(=O)(=O)c3ccccc3-4)CC2)c1 -1.72%
CCOc1ccc(NC(=O)Cn2cc(C(=O)c3ccccc3)c(=O)c3cc4c(cc32)OCCO4)cc1 30.7%
COC(=O)c1ccc(NC(=O)CC2C(=O)N(c3ccc(C)cc3)C(=O)N2Cc2ccc(OC)cc2)cc1 (configuration not stated) -14.9%
Clc1ccc(-c2noc(-c3cccnc3N3CCN(c4ccccc4)CC3)n2)cc1 -9.62%
Cc1ccn2c(Nc3ccccc3C)c(-c3cccnc3)nc2c1 -17.3%
